This note sets out measurements from the supplement of paper PMC8183993.

Where a name gives a salt, the structure may show the parent alone. ± gives the standard deviation of the averaged measurements. The full ranking holds about 3,100 compounds; the median of “mean cytoplasmic OPP incorporation (global translation) relative to DMSO” is about 100, and the lowest 2% start at about 56. This is one part of the list.

The experiment deals with U2OS. Nature of the experiment: mean cytoplasmic OPP incorporation (global translation) relative to DMSO (% of DMSO); higher = more protein synthesis. The conditions noted are these: 10 µM; 24 h. As for the experimental part: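 Primary image-based screen in U2OS cells: compounds at 10 uM for 24 h, then a 1 h o-propargyl-puromycin (OPP) pulse, click labelling, and high-throughput microscopy. Mean cytoplasmic OPP intensity and nuclei count were normalised to DMSO wells within each plate (DMSO = 100) and averaged over triplicate plates.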
`CNc1nc(-c2ccc3c(N)n[nH]c3c2)cc(N2C[C@@H](C(=O)NC3CCCCC3)CC[C@H]2C)n1`: the “mean cytoplasmic OPP incorporation” value was found to be 96.9.
For `O=C(Nc1cc(C(F)(F)F)cc(C(F)(F)F)c1)c1cc(Cl)ccc1O`, the “mean cytoplasmic OPP incorporation” value came out at 103.
In the case of `CN(C)[C@@H]1C(O)=C(C(N)=O)C(=O)[C@@]2(O)C(O)=C3C(=O)c4c(O)cccc4[C@@](C)(O)[C@H]3C[C@@H]12` [Tetracycline hydrochloride], the “mean cytoplasmic OPP incorporation” value came out at 97.9.
Take `NC(=O)N1CCC(CC(=O)N2CCC([C@H]3c4ncc(Br)cc4CCc4cc(Cl)cc(Br)c43)CC2)CC1`: the “mean cytoplasmic OPP incorporation” value amounted to 97.4.
In the case of `C[C@H](N[C@@H](CCc1ccccc1)C(=O)O)C(=O)N1CCC[C@H]1C(=O)O` [Enalaprilat dihydrate], the “mean cytoplasmic OPP incorporation” value came to 102.
For `O=C1N[C@H](C(=O)O)CS1` [Procysteine], the “mean cytoplasmic OPP incorporation” value was 119.
To `C[C@]12CCC(=O)C=C1CC[C@@H]1[C@@H]2C(=O)C[C@@]2(C)[C@H]1CC[C@]2(O)C(=O)CO` [Cortisone] belongs 93 ± 5.6.
Take `COC(=O)[C@H](c1ccccc1Cl)N1CCc2sccc2C1` [Clopidogrel (Plavix)]: the “mean cytoplasmic OPP incorporation” value was found to be 96.6.
As for `COCCCC/C(=N\OCCN)c1ccc(C(F)(F)F)cc1` [Fluvoxamine maleate], the “mean cytoplasmic OPP incorporation” value turned out to be 111 ± 4.7.
For the compound `CCCCC1CCC(c2nc(-c3ccncc3)no2)CC1` (stereo unspecified), the “mean cytoplasmic OPP incorporation” value turned out to be 107.
Turning to `O=C(O)c1cn(-c2ccc(F)cc2)c2cc(N3CCNCC3)c(F)cc2c1=O` [Sarafloxacin], the “mean cytoplasmic OPP incorporation” value turned out to be 89.8.
For `C[C@@H](NCc1cc(Br)cc2[nH]c(=O)c(=O)[nH]c12)P(=O)(O)O`, the “mean cytoplasmic OPP incorporation” value came to 96.4.
Under `CC[C@H](/C=C/[C@@H](C)[C@H]1CC[C@H]2[C@@H]3CC=C4C[C@@H](O)CC[C@]4(C)[C@H]3CC[C@]12C)C(C)C` [Stigmasterol (Stigmasterin)] stands 95.3.
As for `COc1cccc(/C=N/N=C/c2cccc(OC)c2)c1`, the “mean cytoplasmic OPP incorporation” value was 99.7.
`O=C(O)c1ccc(O)c(O)c1` [Protocatechuic acid]: the “mean cytoplasmic OPP incorporation” value turned out to be 103.
To `O=C(NC[C@H]1CN(c2ccc(N3CCOCC3=O)cc2)C(=O)O1)c1ccc(Cl)s1` [Rivaroxaban (Xarelto)] belongs 111; to `C[C@@H]1C[C@H]2[C@@H]3C[C@H](F)C4=CC(=O)C=C[C@]4(C)[C@@]3(F)[C@@H](O)C[C@]2(C)[C@@]1(O)C(=O)CO` [Flumethasone], 103; to `Cc1cc2c(cc1CC(=O)c1sccc1S(=O)(=O)Nc1onc(C)c1Cl)OCO2`, 107.
`O=C(O)Cc1ccc(-c2ccccc2)cc1` [Felbinac]: the “mean cytoplasmic OPP incorporation” value came to 98.9.
Take `COc1ccc(CN2C(=O)C(=O)c3cc(OC(F)(F)F)ccc32)cc1`: the “mean cytoplasmic OPP incorporation” value amounted to 102.
To `c1ccc(NCc2ccc(CNc3ccccn3)cc2)nc1` belongs 102; to `NCc1ccccc1CC(=O)N[C@@H]1C(=O)N2C(C(=O)O)=C(CSc3nnnn3CC(=O)O)CS[C@H]12` [Ceforanide], 99.6.
On to `N=C(NCCCCCCNC(=N)NC(=N)Nc1ccc(Cl)cc1)NC(=N)Nc1ccc(Cl)cc1` [Chlorhexidine], for which the “mean cytoplasmic OPP incorporation” value is 83.6.
In the case of `COc1c2occc2cc2ccc(=O)oc12` [Methoxsalen (Oxsoralen)], the “mean cytoplasmic OPP incorporation” value was found to be 124.
For `COc1ccc2c(OCc3nnc4ccc(-c5ccccc5)nn34)ccnc2c1`, the “mean cytoplasmic OPP incorporation” value came out at 100.
Consider `CN1CCN(C2=Nc3ccccc3Oc3ccc(Cl)cc32)CC1` [Loxapine succinate], for which the “mean cytoplasmic OPP incorporation” value worked out at 112.
With `N[C@H](C(=O)O)c1ccc(O)c(C(=O)O)c1` [(S)-3-Carboxy-4-hydroxyphenylglycine], the “mean cytoplasmic OPP incorporation” value worked out at 104.
In the case of `C[C@@]1(C(=O)Nc2ccc(F)nc2)CCCN1c1nc(Nc2cc(C3CC3)n[nH]2)c2cccn2n1`, the “mean cytoplasmic OPP incorporation” value was 112.
For the compound `Clc1ccc(CCC(Cn2ccnc2)Sc2c(Cl)cccc2Cl)cc1` (stereo unspecified) [Butoconazole nitrate], the “mean cytoplasmic OPP incorporation” value was found to be 103.
To `N#Cc1ccc(C(c2ccc(C#N)cc2)n2cncn2)cc1` [Letrozole] belongs 116; to `C[N+]1(C)CCC(OC(=O)C(O)(c2ccccc2)C2CCCC2)C1` (stereo unspecified) [Glycopyrrolate], 110.
Turning to `O=C(Nc1cccc(Cl)c1)c1ccccn1`, the “mean cytoplasmic OPP incorporation” value is 97.5.
Under `O=C1NC(=O)c2c1c(-c1ccccc1)cc1[nH]c3ccc(O)cc3c21` stands 51.8; under `CN(C)CCCN1c2ccccc2Sc2ccc(C(F)(F)F)cc21` [Triflupromazine hydrochloride], 109.
Under `CCN(CC)CCOC(=O)C1(C2CCCCC2)CCCCC1` [Dicyclomine hydrochloride] stands 106; under `CCCCC(O)c1ccccc1` (stereo unspecified) [Fenipentol], 99.5.
To `CC(N/C(=N\C#N)Nc1ccncc1)C(C)(C)C` (stereo unspecified) [Pinacidil] belongs 94.1.
Regarding `CC(N/C(=N\C#N)Nc1ccncc1)C(C)(C)C` (stereo unspecified) [Pinacidil H2O], the “mean cytoplasmic OPP incorporation” value was found to be 105.
With `CCCc1cc(C)[nH]c(=O)c1CNC(=O)c1cc(-c2ccc(N3CCN(C(C)C)CC3)nc2)cc2c1cnn2C(C)C`, the “mean cytoplasmic OPP incorporation” value is 123.
On to `C[N+]1(C)CCC(OC(=O)C(c2ccccc2)c2ccccc2)CC1`, for which the “mean cytoplasmic OPP incorporation” value came out at 104.
For `NC(=O)c1ccc(N(C(N)=O)c2c(F)cccc2F)nc1-c1ccc(F)cc1F`, the “mean cytoplasmic OPP incorporation” value came out at 97.9.
